Measured values reported in article PMC4336329 (PLoS ONE, 2015).
About 14,000 (4.5%) of roughly 310,000 compounds showed an effect of 50% or more. The effect is printed as a negative number. This is one part of the list.

These molecules were tested against human ether-à-go-go-related gene (hERG) potassium channel (human, UniProt Q12809) (assay: primary screen, population patch clamp on CHO cells stably expressing hERG).
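Also: peak tail current of the secondary pulse compared with the same well before compound.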

Sequence of human ether-à-go-go-related gene (hERG) potassium channel (Q12809 whole entry, looked up): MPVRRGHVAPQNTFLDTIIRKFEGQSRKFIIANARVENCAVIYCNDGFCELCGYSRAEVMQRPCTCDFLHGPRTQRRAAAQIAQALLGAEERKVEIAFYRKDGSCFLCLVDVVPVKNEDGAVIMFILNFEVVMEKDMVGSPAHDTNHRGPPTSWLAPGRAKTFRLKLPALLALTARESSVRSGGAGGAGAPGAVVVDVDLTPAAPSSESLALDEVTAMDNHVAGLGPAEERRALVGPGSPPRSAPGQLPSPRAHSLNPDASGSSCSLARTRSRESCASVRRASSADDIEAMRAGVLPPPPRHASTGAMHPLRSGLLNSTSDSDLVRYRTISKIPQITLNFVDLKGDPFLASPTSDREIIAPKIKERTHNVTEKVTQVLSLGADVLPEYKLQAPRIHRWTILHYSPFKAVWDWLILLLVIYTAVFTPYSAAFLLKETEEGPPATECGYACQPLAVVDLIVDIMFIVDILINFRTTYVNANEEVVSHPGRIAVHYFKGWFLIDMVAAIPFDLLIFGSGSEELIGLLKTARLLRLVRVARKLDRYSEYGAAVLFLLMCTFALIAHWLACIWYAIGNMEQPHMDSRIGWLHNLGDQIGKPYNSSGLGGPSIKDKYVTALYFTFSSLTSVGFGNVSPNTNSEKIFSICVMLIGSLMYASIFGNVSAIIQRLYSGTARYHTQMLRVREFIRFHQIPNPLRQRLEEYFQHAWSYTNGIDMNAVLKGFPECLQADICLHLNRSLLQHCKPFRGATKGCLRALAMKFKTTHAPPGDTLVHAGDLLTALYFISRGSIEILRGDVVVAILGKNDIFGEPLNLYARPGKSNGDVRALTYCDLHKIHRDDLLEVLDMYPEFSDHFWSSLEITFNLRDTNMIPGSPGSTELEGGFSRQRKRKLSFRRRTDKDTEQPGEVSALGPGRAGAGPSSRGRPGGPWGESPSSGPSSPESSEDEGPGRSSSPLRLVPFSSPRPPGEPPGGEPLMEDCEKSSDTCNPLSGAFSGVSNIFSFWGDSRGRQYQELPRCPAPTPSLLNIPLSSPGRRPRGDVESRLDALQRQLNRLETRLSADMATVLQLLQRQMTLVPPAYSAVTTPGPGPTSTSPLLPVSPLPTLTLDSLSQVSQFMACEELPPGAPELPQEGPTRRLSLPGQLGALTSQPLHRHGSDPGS

SMILES	hERG current change (%, negative = inhibition) at 10uM
CCOC(=O)CCCCC(=O)c1[nH]c(=O)[nH]c1CSc1nnc2c3cc(Br)ccc3n(C)c2n1	20.5%
N#C/C(=C\c1ccc(-c2ccccc2[N+](=O)[O-])o1)C(=O)Nc1nc(-c2cccs2)cs1	18.1%
O=C(C1CCC(CNc2c(N3CCCCC3)c(=O)c2=O)CC1)N1CCN(c2ccccn2)CC1 (stereo not drawn)	0.00178%
Cl.OCCNCCOc1ccc(Cl)c(Cl)c1	-6.93%
O=C(O)C(=O)O.c1ccc(COc2ccc(OCCCN3CCCC3)cc2)cc1	-73.8%
O=C(NCc1ccco1)c1cc2c(s1)CSC2	-4.05%
Cc1ccc(C(=O)NCCc2nnc(SCC(=O)Nc3nc(-c4ccccc4)cs3)n2C)cc1	-0.75%
O=C(O)c1cccc(NS(=O)(=O)c2ccc3c4c(cccc24)C(=O)N3)c1	23%
CC(C)c1ccccc1NC1=CC(=O)CC(C)(C)C1	4.25%
O=C(Cc1ccccc1)NCCc1c[nH]c2ccccc12.O=C(O)C(=O)O	16.4%
CC1(OC(=O)C2CCCC2)C(=O)C=C2C=C(c3ccsc3)N(C3CCCC3)C=C2C1=O (stereo not drawn)	-64.7%
CC1(C)C2C(Cl)(Cl)C2(C)c2ccccc2N1C=O (stereo not drawn)	3.5%
COCCCn1c(=O)/c(=C\c2ccc(OC(F)F)c(OC)c2)s/c1=C(/C#N)C(=O)NCCOC	-4.74%
COC(=O)c1sc2nc(CN3CCN(c4ccc(OC)cc4)CC3)[nH]c(=O)c2c1C	-0.366%
CN(C)C(=O)C1CCC(=O)N1Cc1cccs1 (stereo not drawn)	9.89%
c1coc(Cn2c(-c3ccco3)nc3ccccc32)c1	-10%
Cc1cccc(N2CSC3=C(C#N)C(c4ccc(C)o4)CC(=O)N3C2)c1 (stereo not drawn)	12%
CC(C)(C)c1ccc(NC(=O)COC(=O)C2CCCC2)cc1	9.41%
CCN(c1cccc(C)c1)C1C(=O)c2ccccc2N1C(C)=O (stereo not drawn)	13.7%
Cc1cc(=O)oc2cc(OCC(=O)Nc3ccccc3C(=O)O)ccc12	11.6%
O=C(CSc1nnc(-c2ccoc2)o1)N1CCOCC1	5.01%
CC(C)(C)NS(=O)(=O)c1ccc(OCC(=O)NCCC2=CCCCC2)cc1	-14.1%

SMILES	hERG current change (%, negative = inhibition) at 10uM
COC(=O)c1ccccc1NC(=S)N1CCN(c2ccccn2)CC1	-6.65%
Cc1ccc(N(CC(=O)O)S(C)(=O)=O)cc1Cl	5.49%
FC(F)(F)c1cccc(-c2cc3ccccc3nc2N2CCCC2)c1	4.9%
Cc1ccc(NC(=O)c2ccc(F)cc2)cc1S(=O)(=O)N1CCCCCC1	-42.6%
CCCCn1c(CNC(=O)C23CC4CC(CC(C4)C2)C3)nnc1SC(C)CC (stereo not drawn)	-20.4%
O=C(O)CC(NC(=O)C(F)(F)F)c1ccc2c(c1)OCO2 (stereo not drawn)	13.2%
CCC(C)/C(C)=N/Nc1ccc(S(N)(=O)=O)cc1[N+](=O)[O-] (stereo not drawn)	2.03%
COc1ccccc1CC(=O)NCCN1CCCCC1	-4.44%
O=C(NCCCN1CCOCC1)c1ccc(Sc2ccc(F)cc2)c([N+](=O)[O-])c1	-33.3%
COc1ccc(Cl)cc1C(=O)NNC(=S)NC(=O)c1cc(-c2ccc(Cl)cc2)nc2ccccc12	5.05%
NC(=O)c1ccc(Nc2nnc(-c3ccc(O)cc3)c3ccccc23)cc1	24%
O=C(CSc1nc2ncccc2[nH]1)NC1CCCCC1	8.56%
CCOc1ccc(CCNC(=O)CN2C(=O)NC3(CCCCCC3)C2=O)cc1OCC	9.95%
Cc1cc(C)cc(OCC(=O)Nc2ccccc2C(=O)N2CCOCC2)c1	10.2%
O=C(CCc1ccncc1)NC1CCCc2c1cnn2-c1cc(F)cc(F)c1 (stereo not drawn)	-56.5%
CCc1ccc(N2CC(C(=O)Nc3ccc(S(=O)(=O)Nc4nccs4)cc3)CC2=O)cc1 (stereo not drawn)	18.2%
COCC(C)NC(=O)COc1ccc(Cl)cc1Cl (stereo not drawn)	5.35%
COC(=O)C1=C(c2c(C)noc2C)C[C@@H]2CC[C@H]1N2C(=O)N1CCOCC1	8.82%
COc1ccc(C(CCN(Cc2ccc(OC)c(OC)c2)C(C)=O)c2ccccc2)cc1 (stereo not drawn)	-33.9%
O=C(Nc1cc(-c2nc3ccccc3s2)ccc1Cl)c1ccc2c(c1)OCO2	7.51%
CNc1cc(NS(=O)(=O)c2ccc(N)cc2)nc(NC)n1.Cl	-61.4%
CCOCCCNC(=S)N1CCN(Cc2ccc3c(c2)OCO3)CC1.O=C(O)C(=O)O	-7.2%

SMILES	hERG current change (%, negative = inhibition) at 10uM
CCC(=O)Nc1cccc(NC(=S)NC(=O)c2ccc(C)cc2)c1	-2.66%
Cc1ccccc1NC(=O)Cc1cn(C)c2ccccc12	15.1%
Cc1cccc(NS(=O)(=O)c2cccc(C(=O)NCC3(N4CCCCC4)CCCCC3)c2)c1	-89.9%
COc1ccccc1NS(=O)(=O)c1ccc2c(c1)NC(=O)CC(=O)N2	14.5%
CC(=O)N(CN1C(=O)C2C3C=CC(C3)C2C1=O)c1cccc(Cl)c1 (stereo not drawn)	6.79%
COc1ccccc1C(=O)Nc1ccc(N2CCN(Cc3ccccc3)CC2)cc1	-0.268%
CCc1nn(CC(=O)NCCC2=CCCCC2)c(=O)c2cc3cc(F)ccc3n12	15.7%
COC(=O)c1ccc(CSc2nc3scc(-c4cccs4)c3c(=O)[nH]2)o1	3.45%
COC(=O)c1ccc(C(=O)N2CCCC(Nc3ccc(C(C)C)cc3)C2)nc1 (stereo not drawn)	0.521%
CN1CCc2nc(SCCOc3ccccc3)c(C#N)cc2C1	-66.3%
CNC(=O)c1cc(C)c(-c2ccccc2)s1	-18.9%
COc1cc2nc(Cl)nc(N3CCOCC3)c2cc1OC	-14.4%
Nc1nonc1-n1nnc(C(=O)N/N=C/C2CCCCC2)c1-c1ccccc1	12.5%
CC(C)n1c(N)c(C#N)c2ccc([N+](=O)[O-])cc2c1=O	-11.5%
COc1ccc(OCC(=O)Nc2ccc3c(c2)n(C)c(=O)n3C)cc1	-3.51%
CC(=O)N1c2ccc(S(=O)(=O)N(C)CC(=O)NC3CCCC3)cc2CC1C (stereo not drawn)	-23.1%
COc1ccccc1C(=O)NCCC(=O)N1CCN(S(=O)(=O)c2cccc(Cl)c2)CC1	-31.2%
CC1CCCN(c2ccc(F)cc2N)C1.Cl (stereo not drawn)	11.2%
CC1(C)CC(=O)c2cc(OCC(=O)O)ccc2O1	0.158%
COC(=O)Nc1ccc(S(=O)(=O)N2CCCC(C(=O)Nc3cccnc3)C2)cc1 (stereo not drawn)	-1.19%
CCN(CC)C(=O)c1ccc(NC(=O)COc2ccccc2F)cc1	-9.29%
CC(=O)Nc1ccc(OS(=O)(=O)c2ccc(C(C)(C)C)cc2)cc1	14.7%

SMILES	hERG current change (%, negative = inhibition) at 10uM
Cn1c(=O)c2c(nc(Sc3n[nH]c(N)n3)n2Cc2ccccc2Cl)n(C)c1=O	11.9%
Cc1nc2c3ccccc3nc(NNC(=O)CCC(=O)N3CCN(c4ccccc4F)CC3)n2n1	-40.3%
O=C(N/N=C/C1CC=CCC1)c1ccc(O)cc1O (stereo not drawn)	11.8%
COc1ccc(C(=O)Nc2ccc(O)c3c(=O)cc(-c4cccc(Cl)c4)oc23)cc1	-4.16%
O=C(O)CNC(=O)c1ccccc1NC(=O)c1ccco1	7.93%
CC(C)(C)OC(=O)NCCCC[C@H](NC(=O)c1nc[nH]c1C(=O)NCC(=O)OCc1ccccc1)C(=O)OC(C)(C)C	-14.1%
Cc1ccc(-n2nnc(-c3ccnc4ccccc34)n2)cc1	0.34%
C=CCN(CC=C)S(=O)(=O)c1ccc(NC(=S)NC(=O)c2ccc(-c3ccccc3)cc2)cc1	5.95%
C=CCN(C(=O)c1csnn1)C(C(=O)NC1CCCCC1)c1ccc(C)cc1 (stereo not drawn)	-6.69%
Cn1nnnc1SCc1ccc(C(=O)Nc2ccc(Br)cc2)cc1	16.7%
COC(=O)N/N=C(\C)c1ccc(OC(F)F)cc1	9.93%
COCCn1c(=O)[nH]c2cc(C(=O)N3CCN(c4cccc(C(F)(F)F)c4)CC3)ccc2c1=O	7.67%
CC(CCc1ccccc1)NC(=O)CCNS(=O)(=O)c1ccccc1 (stereo not drawn)	0.271%
O=C(NCc1ccccc1)c1nc(-c2cccs2)no1	-22.2%
CCn1c(=O)c([N+](=O)[O-])c(NCCCn2ccnc2)c2ccccc21	10.3%
COC(=O)/C=C1/SC(=NC(=O)c2ccccc2)NC1=O	-13.9%
CCN[C@H]1CN(CCCOC)S(=O)(=O)c2sc(S(N)(=O)=O)cc21	2.51%
CCOC(=O)c1cc2sccc2n1CC(=O)OC(C)C	-10.9%
CC1=N/C(=C\c2ccc([N+](=O)[O-])cc2)C(=O)N1c1cc(Cl)ccc1C	-9.14%
Cc1sc2nc(COC(=O)c3cccc(OC(F)F)c3)[nH]c(=O)c2c1C	0.0335%
NS(=O)(=O)c1ccc(NC(=O)c2ccc(CSc3ccccc3)o2)cc1	-13.6%
